Measured values reported in the supplement of paper PMC3334620.
The full ranking holds about 33,000 sequences; the median of “E-score (-0.5 to 0.5)” is about -0.032, and the highest 2% start at about 0.36. The list shows a part of the results.

Molecular target: T1, Sko1 (UniProt Q02100)
T1 sequence: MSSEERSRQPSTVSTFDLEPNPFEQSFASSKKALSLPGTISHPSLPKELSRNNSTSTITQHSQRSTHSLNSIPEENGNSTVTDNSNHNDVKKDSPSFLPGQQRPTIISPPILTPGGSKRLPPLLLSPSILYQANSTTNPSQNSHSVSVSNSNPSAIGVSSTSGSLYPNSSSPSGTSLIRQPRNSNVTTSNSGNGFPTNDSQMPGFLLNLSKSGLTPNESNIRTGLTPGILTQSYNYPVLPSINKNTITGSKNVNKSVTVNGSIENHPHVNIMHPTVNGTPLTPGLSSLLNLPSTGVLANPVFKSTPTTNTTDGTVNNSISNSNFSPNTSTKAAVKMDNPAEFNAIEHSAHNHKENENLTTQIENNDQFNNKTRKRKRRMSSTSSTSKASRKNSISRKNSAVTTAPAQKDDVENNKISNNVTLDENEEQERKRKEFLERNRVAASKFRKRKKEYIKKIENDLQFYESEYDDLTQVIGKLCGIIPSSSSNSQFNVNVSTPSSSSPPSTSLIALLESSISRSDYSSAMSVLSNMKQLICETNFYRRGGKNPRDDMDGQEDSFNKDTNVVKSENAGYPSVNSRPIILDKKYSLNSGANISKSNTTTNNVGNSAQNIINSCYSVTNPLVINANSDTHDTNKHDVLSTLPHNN
Experiment: PBM E-score (8-mer binding enrichment) (E-score (-0.5 to 0.5)); higher = stronger / more preferred TF binding; most listed sequences are background and not binding sites
Details: protein concentration: 200 nM; construct: GST-full length
Outline: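 GST-tagged yeast TFs (full-length or DNA-binding domain) were made by PURExpress in vitro transcription/translation and applied at about 100-200 nM to universal all-10-mer Agilent arrays. The arrays were made double-stranded by primer extension, on fresh or once-stripped slides. Bound protein was detected with fluorescent anti-GST, and scans were normalised with masliner. Each ungapped eight-base word, pooled with its reverse complement, received an E-score (modified Wilcoxon-Mann-Whitney statistic) from the Universal PBM Analysis Suite.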

Sequence	PBM E-score
CAGGATTC	-0.0613
CGGCCACG	-0.0945
CGATCACG	0.215
CGCGAAGC	0.185
ACAGTCTC	-0.202
AGCGCAGG	-0.246
ACTTAGAG	-0.0119
CGGACTAC	0.0634
CAGCAGGC	-0.22
GTAGTCGA	0.0988
AGTACATG	-0.00609
ACCTGACA	-0.0471
GGGTGTAC	-0.085
ATTACTGG	-0.135
ACTATGTG	-0.0357
CCCAGTCA	-0.303
CCGGATCC	-0.209
CAGCGGTC	-0.332
ACTTCCGG	-0.14
ACCTGAAA	0.0432
AAGGGAGC	-0.317
GATAAAGC	-0.012
AAGCATGT	0.0382
CCGTCTGC	-0.109
AGCCAAAT	-0.0216

Sequence	PBM E-score
AAATGTCG	0.159
ACAACGAG	-0.0139
ATGCGGTA	-0.0748
TATTACAA	0.221
AATCTCAT	0.117
CAGTCACA	0.0418
CTAGGGGA	-0.363
CTGGTGTC	-0.167
CTCGACAG	-0.233
CACAATCC	-0.0275
AAGGAGCA	-0.195
ACTCACGA	0.0722
ATTTTTAG	-0.0858
CGGAAAGA	0.0378
GAGCTGCC	-0.271
CCAAACTA	-0.0987
AACGAACT	0.0506
TCGTCGCA	0.0193
GACACTGC	-0.0761
CCATAACC	-0.235
ATCGGTTG	-0.0726
ATGAGGCG	-0.136
ACGATAGT	0.295
CTGGGGGC	-0.19
AGCAATGA	0.0923

Sequence	PBM E-score
GGAGTTCA	0.0339
TGATCACA	0.0799
AGCAACGG	-0.0513
CGAATTCA	0.0564
CCTACGTA	0.477
AAATGGCG	0.171
CTGGATCA	-0.165
CGGCAATA	-0.0262
TAGAACTA	0.073
AGCCAGGC	-0.0211
CAGTTCCG	-0.161
AAATTTGG	0.0593
ATGAGTCC	0.0501
ATAAGCGC	-0.0312
AGAGCCAT	-0.106
GCCAGTCC	-0.34
AGACCCCG	-0.247
CTGCACTC	-0.16
GACAAAGC	-0.138
AATGAGGG	-0.15
CTTGCACA	0.0986
CCCACGTC	0.402
CGCGGCAG	-0.218
ACTGTTTC	0.0897
AGCCCGAC	-0.173

Sequence	PBM E-score
ACCTATCT	-0.0547
GATCGAGC	0.00325
GACCCCTA	-0.179
TATCGATA	0.0744
ACCTGGAT	-0.245
AGCCTAAG	-0.199
ACGCGTAT	0.389
GGAGTAGA	-0.0416
GTTGTCTA	0.00931
ATCGACAG	-0.0578
CACACAGA	0.0535
AACCTATA	0.0955
AGCTGGTC	-0.145
CGTCTAAG	0.0318
CCAAGACG	0.169
ACTGTCCA	-0.0614
CTTGTCGA	-0.142
AGTGGTCA	-0.131
ATGAGGTC	0.161
CAAACGAA	0.176
CCACCCGG	-0.369
AACAAACT	0.144
ACTCAAAG	-0.0822
CCTCGACC	-0.267
CTCAGCGA	-0.143

Sequence	PBM E-score
AGCAAGCC	-0.119
CCGGATGA	-0.0444
AAGCGTGA	0.105
ACATGCAG	0.00336
CTACCGAG	-0.183
CTTTAATA	0.207
AGACAAAC	0.0999
CGTCGAAC	0.0482
CTAGTGGC	-0.184
AATAGGCC	-0.182
AACAGGTA	0.172
CGGTTTAC	-0.00808
TTTAGAAA	0.182
CGATCTCC	-0.0976
AGTCCTGA	-0.0273
GCTCTATA	-0.161
AATGGACT	-0.0952
CTGACTGA	-0.12
AAAGTGGG	0.0317
AATTATAT	0.201
CGCGCGAG	-0.139
AGAACAAA	0.23
CAGCTAGC	-0.124
CACGAGAG	-0.235
AATGGGAT	-0.106

Sequence	PBM E-score
TCAGCTAA	-0.0261
CTAATCTC	0.079
GACCTGAA	-0.31
CGCATGTC	0.268
GATACATA	0.149
CGGAACCG	-0.239
CCTTCCCC	-0.243
CGTAACCA	0.389
ACACCAGA	0.0476
AAACGTTA	0.3
CCAAGGGC	-0.273
AAAATCCG	-0.0369
ATACTATA	0.0423
AAAATCGA	0.103
GCGTCTGA	0.00529
CTGAGGCA	-0.167
CGTAAAAG	0.288
CGATGCGC	0.152
AACGATAT	0.261
CAACTCAA	0.067
TAGTCAAA	0.191
CATTGAGC	-0.0894
CGATCTTA	-0.00227
CGAAGAGC	-0.168
ACGGTCCT	-0.245

Sequence	PBM E-score
TTACGGAA	0.246
CCGCGTAA	0.318
ATGCGCTA	0.0485
CTTAAGAC	-0.0586
AGTGCCGG	-0.292
AACCGTGT	-0.0788
ACGAGACG	0.126
AAACCCAT	0.159
GTTTGCCA	0.0947
ATGATGGG	-0.167
GCGTCAAC	0.302
CACTAAGC	-0.0437
AGCTTGAT	0.0638
ATAGCAAG	0.0693
CACGCAAG	0.3
ACTGCACC	-0.158
GTTAGTCA	0.0321
CGGGGACA	-0.127
CGAGGAGA	-0.416
ACAGCGCG	-0.089
ATCTGTGC	0.018
AGGAAGTC	-0.234
AAGGCAAG	-0.0412
CGCGCCTC	-0.0779
AGTAATGA	0.247

Sequence	PBM E-score
GCCCGACC	-0.328
AGTAGATA	0.202
AAGTCAGT	-0.0135
AGTTGCCC	-0.107
GGGAAAAA	-0.0662
AGCCCACC	-0.268
ACATTGAT	0.0859
CTGATTCC	-0.152
GAGGGCGA	-0.265
CAGAGGTC	-0.285
CACGCCAC	0.0399
AAGCACGA	0.0735
AAAACAAA	0.158
CGTCACGC	0.433
CCCGATCC	-0.0903
AATAGTTG	0.144
GCATTTAC	0.162
ACACCAAA	0.211
GCTGGAAC	-0.188
GCACGTGC	0.296
CGGATTCC	-0.198
AGGTAACC	-0.0468
ATCTTTGA	0.109
GCCGACAA	-0.0507
AAGCCCGT	-0.203

Sequence	PBM E-score
CTTCAGCA	-0.0157
AAGACTAG	-0.193
GTCTTGAA	0.019
TAAAAACA	0.28
ACCCGATG	-0.166
GCACAGCC	-0.408
CCAAACGC	-0.0857
TGGGTAAA	0.00575
CGGCGACA	-0.288
ACGTTGTG	0.311
AATGGGAG	-0.0434
GACTCCGA	-0.232
GAGAAATC	0.0021
ACGTCTCC	0.322
AATAAACA	0.258
AGGTGGGA	-0.261
ACCGCTGA	-0.105
GGCATATA	0.177
GTTCCAAA	0.0762
CTAGGGTA	-0.161
ACCTCGAC	-0.0495
AATCGGTG	0.0141
AATAGCAG	-0.195
AGGACACC	-0.242
ATTCTATC	0.119

Sequence	PBM E-score
GATCATGC	-0.0693
CGCTAGCG	-0.26
CAGGGGTA	-0.351
AACCTTGT	-0.166
ACCACTAG	-0.00471
ACCGTCAT	0.378
CGGCCCAG	-0.393
CCTCGACG	0.0174
TCTTCCCA	-0.252
AAGATGCT	-0.0361
GCGACAGC	-0.265
AAGAATGA	0.299
CCCGTCCG	-0.305
CCAATCCA	-0.214
ACTCCAGC	-0.326
GACTCCCC	-0.279
GCGGCGTA	-0.0389
AACCCCAC	-0.209
AACCCCAT	-0.219
CAAGCACG	0.188
ACATGGCA	0.033
ACATTGTG	0.0594
AAACACGG	0.0417
ACGCGAAG	0.122
AGAGGGGG	-0.379

Sequence	PBM E-score
ATTAATTA	0.218
AGGAGTGA	0.0137
AAACTACC	0.0275
CGTTTCGA	0.0568
ACGTGGCC	0.32
CAACCCGA	0.002
GTAGGAAA	-0.0388
GCTCCGTA	-0.033
CATTCAAA	0.163
AGCTCCCG	-0.224
ATATATAC	0.277
ATGCAACA	0.174
CACAGTCG	-0.151
TATATCCA	0.213
AACCAGGG	-0.229
GTGTCAAC	0.0369
AGAATTTG	0.0595
AAAGCTGG	-0.11
AACCCAGC	-0.247
GCCTATAA	-0.0696
GCGGACAC	-0.147
GCCTCAGA	-0.148
CAACCCCG	-0.188
CGAACTCC	0.113
AATTGTCT	0.0109

Sequence	PBM E-score
AGGGTTGG	0.0955
CAATTTTA	0.196
TACCGATA	-0.0394
TGGAACAA	0.12
CTTCGCAC	0.0556
AGTTACGG	-0.0826
AATGCGCA	0.146
GTCTCATA	0.00926
CAGACAGC	-0.322
GTGCGTAA	0.418
ACAAGAGC	-0.118
ATGTATTG	0.196
AATTCCTG	-0.136
AACAATAC	0.297
TCACCACA	0.00618
ATTACAAA	0.234
CAGGTATC	-0.128
CATTTTTC	0.162
AGACCCTA	0.0138
CAAGCCAC	-0.276
AAGTCTTC	-0.0255
AAATACGC	0.315
ATTCAGCG	0.046
ACAATTCG	0.124
AGATGTTC	-0.0104

Sequence	PBM E-score
GACCCACA	-0.0663
AAATCCGC	-0.298
CGGCACAA	-0.17
ATACGAAA	0.346
CCGCCCGA	-0.261
AAATCGAG	-0.0106
ACCAGGGG	-0.361
GGTTTGTA	-0.116
ACTAATAC	0.223
CGGCCTTC	-0.223
CCATGTAC	0.14
CGCTGCAC	0.00423
GCCGTAAC	-0.0523
CTGTTAAA	0.25
CAGCCGGA	-0.00661
AATACTGC	0.0392
ACGGCACC	-0.17
GCCCACAA	-0.221
ACTCCTTA	-0.222
CATTCCTA	0.011
TCGAATCA	0.0949
AAGTATAA	0.0788
GTGCCGCA	0.0521
TCATTCCA	0.106
AGCTCGAA	-0.0586

Sequence	PBM E-score
TCGAGGCA	-0.0108
CAATGGCG	0.0434
AAAAGCGC	0.0181
GAAATGGC	0.00268
ATTGTCAA	0.00012
AACTAACC	0.111
ACCTAAGT	0.0547
CGAGAGCC	-0.233
CAGTTACC	-0.18
GATAAATC	-0.0497
ACGGGACT	-0.12
TCCCTCCA	-0.243
ACGCCGCA	-0.0247
CAGCGGTA	-0.101
CATAGAAG	-0.0121
AGCCTAGA	-0.3
AATTGACA	0.0128
CGTAGGGC	0.114
ACGCTTCT	-0.0786
